Target: human TNF-alpha (human, UniProt P01375 part only)
Experiment: cell-based or functional assay

Chain of human TNF-alpha (P01375 77-233 limits assumed): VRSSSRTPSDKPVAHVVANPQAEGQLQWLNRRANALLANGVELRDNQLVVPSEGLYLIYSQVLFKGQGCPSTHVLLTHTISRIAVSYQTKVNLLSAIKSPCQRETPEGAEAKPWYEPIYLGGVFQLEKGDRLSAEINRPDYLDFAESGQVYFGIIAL

B1: TNFRII-Fc-IL-1ra (Fc fusion)
chain: LPAQVAFTPYAPEPGSTCRLREYYDQTAQMCCSKCSPGQHAKVFCTKTSDTVCDSCEDSTYTQLWNWVPECLSCGSRCSSDQVETQACTREQNRICTCRPGWYCALSKQEGCRLCAPLRKCRPGFGVARPGTETSDVVCKPCAPGTFSNTTSSTDICRPHQICNVVAIPGNASMDAVCTSTSPTRSMAPGAVHLPQPVSTRSQHTQPTPEPSTAPSTSFLLPMGPSPPAEGSTGD[about 400 residues with a human IgG1 Fc left out]
  EC50, neutralization of human TNF-alpha (500 pg/ml) killing of L929 cells: 10 ng/mL

B2: TNFRII-Fc (Enbrel) (Fc fusion)
chain: LPAQVAFTPYAPEPGSTCRLREYYDQTAQMCCSKCSPGQHAKVFCTKTSDTVCDSCEDSTYTQLWNWVPECLSCGSRCSSDQVETQACTREQNRICTCRPGWYCALSKQEGCRLCAPLRKCRPGFGVARPGTETSDVVCKPCAPGTFSNTTSSTDICRPHQICNVVAIPGNASMDAVCTSTSPTRSMAPGAVHLPQPVSTRSQHTQPTPEPSTAPSTSFLLPMGPSPPAEGSTGD[human IgG1 Fc left out]
notes: also called marketed TNFRII-Fc
  EC50, neutralization of human TNF-alpha (500 pg/ml) killing of L929 cells: 3 to 4 ng/mL
